# The whole screen tested about 350,000 compounds, of which about 31,000 (8.9%) were called active. The inconclusive results got no clear call from the source; some entries with a clear call stand among them for comparison. Calls follow the shape of the dose curve; as a rule, active = well fitted inhibition curve with a large enough effect; inconclusive = small, poorly fitted or top-dose-only effect; inactive = no such curve, though single readings can be large or run the other way. A potency beside an inconclusive call is a rough fit, not a confirmed value.
# Target: Histone-lysine N-methyltransferase EHMT2 (Homo sapiens) (UniProt Q96KQ7)
# Experiment: qHTS Assay for Inhibitors of Histone Lysine Methyltransferase G9a; also: nearly all actives have a fitted effect of over 75% in size
# Settings: G9a H3K9 monomethylation, AlphaScreen, 2 h; activity, negative = inhibition: at 59 µM (top of the series) unless noted
# Summary of the method: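 Chemiluminescent proximity detection of H3K9 monomethylation, read after 10 min bead incubation in the dark. Reaction: 20 nM G9a, 500 nM biotin-H3K9 peptide, 20 uM SAM cofactor, 2 h, room temperature, following 15 min enzyme-compound preincubation.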
# % is scaled to controls: 0 for no effect and ±100 for the full control effect; potency is read from the fitted curve at half-maximal effect; tags tell the direction and shape of the fitted curve.
# UniProt Q96KQ7, sequence (Q96KQ7 whole entry, looked up): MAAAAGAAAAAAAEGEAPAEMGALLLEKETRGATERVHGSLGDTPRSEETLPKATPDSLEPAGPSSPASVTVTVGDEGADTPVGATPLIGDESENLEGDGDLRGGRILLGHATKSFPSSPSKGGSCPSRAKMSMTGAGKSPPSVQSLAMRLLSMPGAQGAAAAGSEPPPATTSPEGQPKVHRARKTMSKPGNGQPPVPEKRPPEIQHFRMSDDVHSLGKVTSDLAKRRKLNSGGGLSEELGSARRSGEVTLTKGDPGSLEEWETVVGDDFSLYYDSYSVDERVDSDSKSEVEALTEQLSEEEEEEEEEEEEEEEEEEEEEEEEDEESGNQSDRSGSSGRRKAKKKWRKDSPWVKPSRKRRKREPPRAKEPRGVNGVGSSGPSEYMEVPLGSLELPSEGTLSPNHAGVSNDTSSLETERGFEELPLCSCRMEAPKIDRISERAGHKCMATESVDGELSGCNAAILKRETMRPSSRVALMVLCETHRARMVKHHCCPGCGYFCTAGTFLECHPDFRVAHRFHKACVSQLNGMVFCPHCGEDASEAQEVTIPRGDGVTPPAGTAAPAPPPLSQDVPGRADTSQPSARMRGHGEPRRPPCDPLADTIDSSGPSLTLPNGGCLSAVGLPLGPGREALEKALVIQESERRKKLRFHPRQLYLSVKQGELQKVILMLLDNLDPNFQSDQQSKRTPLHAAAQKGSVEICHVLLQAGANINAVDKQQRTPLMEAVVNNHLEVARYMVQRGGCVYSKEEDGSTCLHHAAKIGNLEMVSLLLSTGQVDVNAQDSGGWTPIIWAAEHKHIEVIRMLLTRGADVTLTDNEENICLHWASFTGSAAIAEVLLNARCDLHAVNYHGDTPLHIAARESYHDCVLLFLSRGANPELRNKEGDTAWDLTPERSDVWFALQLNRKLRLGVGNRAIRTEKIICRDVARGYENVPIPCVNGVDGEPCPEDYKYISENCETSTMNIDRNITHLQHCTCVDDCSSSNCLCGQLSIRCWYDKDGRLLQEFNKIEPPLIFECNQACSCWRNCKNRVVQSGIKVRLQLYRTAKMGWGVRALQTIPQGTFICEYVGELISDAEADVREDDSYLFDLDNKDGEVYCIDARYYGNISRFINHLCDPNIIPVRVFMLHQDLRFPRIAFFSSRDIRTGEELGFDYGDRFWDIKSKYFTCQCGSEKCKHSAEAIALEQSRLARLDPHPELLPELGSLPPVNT
Structure (SMILES),Potency,"activity, negative = inhibition"
CCOC(=O)N1CCN(S(=O)(=O)c2ccc(C(=O)NNc3nc4cc(C)cc(C)c4s3)cc2)CC1,active: 50.1 µM,
CC(=O)N1CCc2c(sc3nc(SCC(C)C)n(-c4ccc(C)c(Cl)c4)c(=O)c23)C1,"inconclusive: 20 µM [inhibitor, single point]",
N#Cc1c(NC(=O)Cn2nc(C(F)(F)F)c3c2CCCC3)sc2c1CCC2,active: 2.82 µM,
C=CCNC(=S)NNC(=O)c1cc(-c2cccnc2)nc2ccccc12,"inconclusive: 79.4 µM [inhibitor, single point]",
COc1ccc(NC(=S)Nc2cc(-c3ccccc3)[nH]n2)cc1Cl,,inconclusive: -111% [inhibitor]
CCOC(=O)c1oc2nc3c(cc2c1N)COC(C)(C)C3,"inconclusive: 89.1 µM [inhibitor, partial curve, poor fit]",
COc1nc2ccccc2nc1CCC(=O)O,,inactive: 38.5% [at 102 µM]
Nc1ccc(NC(=O)c2cccc(C(=O)Nc3ccc(N)cc3Cl)c2)c(Cl)c1,inactive,
Cc1cccc(NC(=O)CN2CCN(CC(=O)Nc3cccc(C)c3)CC2)c1,active: 50.1 µM,
COc1ccc(OC)c(NC(=O)CSc2nnc(-c3ccco3)n2-c2ccc(C(=O)O)cc2)c1,,inconclusive: -69.5% [inhibitor]
CCc1nn2c(=O)cc(COC(=O)c3ccc(NC(=O)CCc4ccccc4)cc3)nc2s1,,inactive: 5.07%
CC1(NC(=O)CC[N+](C)(C)CCO)CS(=O)(=O)CC1S(=O)(=O)[O-] (stereo not given),"inconclusive: 1.41 µM [inhibitor, full curve, poor fit]",
COc1ccc(CNC(=O)COC(=O)CN2C(=O)NC3(CCCC3)C2=O)cc1,,inactive: 2.28% [at 2.33 µM]
O=c1nc2n(c3sc4c(c13)CCCC4)C(CBr)CS2 (stereo not given),active: 50.1 µM,
COC(=O)CCC(=O)NC(=S)Nc1ccc(S(=O)(=O)Nc2cc(OC)nc(OC)n2)cc1,active: 50.1 µM,
CNc1ccc(Br)cc(C(=O)/C=C/c2ccc(OC)cc2OC)c1=O,active: 7.94 µM,
Cc1nn(C(C)C(=O)Nc2ccc(C(C)C)cc2)c(=O)c2c1sc1ccccc12 (stereo not given),,inactive: 3.76%
CC(NC(=O)C1CCN(S(=O)(=O)c2ccccc2)CC1)c1ccccc1 (stereo not given),inactive,
O=[N+]([O-])c1cc(S(=O)(=O)N2CCCC2)ccc1N/N=C/c1cccs1,"inconclusive: 79.4 µM [inhibitor, partial curve, poor fit]",
Cc1ccc(NC(=O)C2(NC(=O)c3cccc(N4C(=O)CSC4c4ccccc4)c3)CCCCC2)cc1 (stereo not given),"inconclusive: 4.47 µM [inhibitor, single point]",
COc1cc(N2CCCC2)c(OC)cc1/C=C(/C#N)c1ccc(Br)cc1,active: 2.82 µM,
Cn1nc(-c2ccccn2)nc2c(=O)n(C)c(=O)nc1-2,active: 14.1 µM,
CCOC(=O)c1sc(NC(=O)Cc2ccccc2OC)nc1C,active: 39.8 µM,
O=C(N/N=C/c1ccc(O)c(O)c1O)/C(=C/c1ccc([N+](=O)[O-])cc1)NC(=O)c1ccccc1,active: 1.58 µM,

Structure (SMILES),Potency,"activity, negative = inhibition"
COc1ccc(C(=O)NCCS(=O)(=O)N2CCCCCC2)cc1,"inconclusive: 89.1 µM [inhibitor, partial curve, poor fit]",
Cc1cc(C)c2c(c1)/C(=N\N=c1\sc3ccccc3n1C)C(=O)N2,"inconclusive: 0.447 µM [inhibitor, partial curve, poor fit]",
O=C(NCc1cccnc1)C(=O)Nc1nccs1,"inconclusive: 10 µM [inhibitor, full curve, poor fit]",
N#C/C(=C\c1cccc([N+](=O)[O-])c1)c1ccccn1,"inconclusive: 17.8 µM [inhibitor, partial curve]",
CCOC(=O)/C=C/C(=O)Nc1cccc([N+](=O)[O-])c1,"inconclusive: 1.26 µM [inhibitor, full curve, poor fit]",
Cc1cc(SCC(=O)NCC(c2cccs2)N2CCOCC2)c(C)cc1Br (stereo not given),,inactive: 3.34% [at 12.7 µM]
O=C(CN1CCN(C(=O)c2ccccc2)CC1)Nc1cccc(S(=O)(=O)N2CCCC2)c1,"inconclusive: 79.4 µM [inhibitor, single point]",
COc1ccccc1CNc1nc(-c2ccco2)nn1C(=O)c1cc(OC)c(OC)c(OC)c1,"inconclusive: 7.08 µM [inhibitor, partial curve]",
CC(C)n1cc(C(=O)N2CCCC(Nc3ccc(F)c(F)c3)C2)cn1 (stereo not given),,inactive: 23.3% [at 102 µM]
CCCn1c2ccccc2c2cnn(CC(=O)NCC3CCN(Cc4ccc(F)cc4)CC3)c(=O)c21,,inactive: -6.64%
Cc1ccc(C2=NS(=O)(=O)N(C)C(C(=O)NC(C)c3ccccc3)=C2)cc1 (stereo not given),,inactive: -0.989% [at 102 µM]
Cc1cccc(-c2nn3c(=O)cc(CN4CCN(C(=O)c5ccccc5Br)CC4)nc3s2)c1,,inactive: -16.2%
COc1ccc(CCN2C(=O)C3C4CC(C5C(C(=O)N/N=C\c6ccc(Cl)cc6)=NOC45)C3C2=O)cc1OC (stereo not given),,inactive: -14.3% [at 102 µM]
Cc1cc(Nc2c(C)n(C)n(-c3ccccc3)c2=O)n2c(nc3cc(F)c(F)cc32)c1C#N,"inconclusive: 0.794 µM [inhibitor, partial curve, poor fit]",
CCS(=O)(=O)N1CCc2cc(C(=O)Nc3cc([N+](=O)[O-])ccc3C)ccc21,"inconclusive: 25.1 µM [inhibitor, single point]",
COc1ccc(NC(=O)C2CCCN(C(=O)c3ccc(Cl)cc3)C2)cc1S(=O)(=O)N(C)C (stereo not given),"inconclusive: 39.8 µM [inhibitor, single point]",
Cc1[nH]n(-c2ccccc2)c(=O)c1Sc1ccc(Cl)cc1,"inconclusive: 89.1 µM [inhibitor, single point]",
CC(C)c1nnc(NC(=O)c2cccs2)s1,"inconclusive: 25.1 µM [inhibitor, partial curve, poor fit]",
CCN(CC)c1ccc(/C=C/c2ccc3ccc(OC)cc3[n+]2CC)cc1,active: 25.1 µM,
CCn1cc2nc(SCC(=O)Nc3cc(OC)ccc3OC)n(Cc3ccc(Cl)cc3)c(=O)c2n1,,inactive: -40.8%
CCOC(=O)c1c(NC(=O)c2ccc(S(=O)(=O)N3CCOCC3)cc2)sc2c1CCN(C)C2,active: 50.1 µM,
O=C(CN1CCCCCC1)N/N=C/c1cccc(Cl)c1Cl,"inconclusive: 10 µM [inhibitor, partial curve, poor fit]",
Cc1c(-n2cccc2C=O)cccc1[N+](=O)[O-],,inconclusive: -53% [inhibitor]
O=C(CN1CCSC1=O)Nc1ccc(N2CCOCC2)cc1,"inconclusive: 89.1 µM [inhibitor, single point]",

Structure (SMILES),Potency,"activity, negative = inhibition"
CC(=O)c1ccc2c(c1)C1C=CCC1C(c1ccc(S(=O)(=O)N3CCOCC3)cc1)N2 (stereo not given),"inconclusive: 28.2 µM [inhibitor, single point]",
Cc1ccc(S(=O)(=O)N2CCC(c3nc4c(nnn4Cc4ccccc4)c(=O)[nH]3)CC2)cc1,"inconclusive: 8.91 µM [inhibitor, partial curve, poor fit]",
N#Cc1nc(COc2ccccc2)oc1N1CCCCC1,"inconclusive: 89.1 µM [inhibitor, single point]",
O=C(NC1CCCCC1)c1ccc2c(c1)N(Cc1ccccc1F)C(=O)c1ccccc1S2,,inactive: 5.15%
COc1ccccc1CCNC(=O)Cn1ccc2cc(S(=O)(=O)N3CCCCC3)ccc21,,inactive: -31.3%
CCCC(=O)Nc1nnc(SCc2cc(=O)n3ccccc3n2)s1,,inactive: -32.6%
CCn1cc(C2=NOC(C(=O)Nc3cccc(C(C)=O)c3)C2)c(C)n1 (stereo not given),"inconclusive: 1.41 µM [inhibitor, single point]",
S=c1sc2c(Cl)ncnc2n1-c1ccccc1,active: 44.7 µM,
O=C(CSc1ccc2nnc(-c3cccc(F)c3)n2n1)N1CCCc2ccccc21,"inconclusive: 79.4 µM [inhibitor, single point]",
COc1ccc(CNC(=O)CCS(=O)(=O)c2ccc3c(c2)NC(=O)CS3)cc1,"inconclusive: 89.1 µM [inhibitor, single point]",
CCN(CC)CCN(C(=O)c1ccc2c(c1)CCCC2)c1nc2cc(OC)c(OC)cc2s1,active: 50.1 µM,
COc1cc(C2Nc3ccccc3NC3=C2C(=O)CC(C)(C)C3)cc(OC)c1OC (stereo not given),,inactive: -4.97% [at 102 µM]
CCN(CC)CCCN1C(=O)C(=O)/C(=C(/O)c2ccc3c(c2)OCCO3)C1c1ccc(C)o1 (stereo not given),"inconclusive: 79.4 µM [inhibitor, single point]",
Cc1csc(=Nc2ccccc2)n1CCCN1CCCC1=O,"inconclusive: 50.1 µM [inhibitor, partial curve, poor fit]",
O=S(=O)(c1cccc2nsnc12)N1CCN(c2ccc(F)cc2)CC1,"inconclusive: 10 µM [inhibitor, partial curve, poor fit]",
O=C(NCc1ccc(F)cc1)C1CCCN(c2cnccn2)C1 (stereo not given),,inactive: 8.9% [at 102 µM]
O=C(Nc1ccccn1)Nc1cccs1,active: 56.2 µM,
CCCCn1c(CN2CCN(c3ccc(OC)cc3)CC2)nc2c1c(=O)[nH]c(=O)n2C,"inconclusive: 17.8 µM [inhibitor, partial curve, poor fit]",
O=C1c2nc3cc(-c4ccco4)[nH]n3c(=O)c2CN1Cc1ccccc1,"inconclusive: 39.8 µM [inhibitor, single point]",
COc1ccc(OCC(=O)N2CCN(C(=O)c3cccc4ccccc34)CC2)cc1,,inactive: -20.2%
c1ccc(-c2nnsc2-c2nc3ccccc3[nH]2)cc1,"inconclusive: 6.31 µM [inhibitor, partial curve]",
Cn1c(N)c(C(=O)COC(=O)c2cc(C3CC3)nc3ccccc23)c(=O)n(Cc2ccccc2)c1=O,"inconclusive: 89.1 µM [inhibitor, single point]",

# — PubChem BioAssay AID504332 (National Center for Advancing Translational Sciences (NCATS), 2011)
